Measured values reported in US20160208003A1 (AFFITECH RESEARCH, published 2016).

Legend:
[1] = biological target: T1, human CC chemokine receptor 4 (CCR4) (human, UniProt P51679 1-360); assay: flow cytometry, IgG titration on CCR4+ DT40 cells (2); one site-specific binding fit (Prism)
T1 construct: whole, on cells; Always presented on cells; also called CD194; human CCR4
T1 sequence (looked up): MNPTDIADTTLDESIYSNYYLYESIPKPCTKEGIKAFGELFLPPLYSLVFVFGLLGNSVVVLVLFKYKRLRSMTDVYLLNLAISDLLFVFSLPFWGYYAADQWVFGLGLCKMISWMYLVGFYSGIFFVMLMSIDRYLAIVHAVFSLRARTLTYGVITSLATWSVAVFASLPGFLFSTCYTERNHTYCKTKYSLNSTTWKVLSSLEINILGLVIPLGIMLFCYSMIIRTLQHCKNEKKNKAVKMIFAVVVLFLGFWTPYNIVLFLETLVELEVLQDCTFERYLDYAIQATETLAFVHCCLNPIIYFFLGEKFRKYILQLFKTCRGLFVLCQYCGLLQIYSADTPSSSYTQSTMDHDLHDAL
Method: (§1) The IgG forms of antibodies 17G, 9E and KM3060var using various CCR4⁺ cell types were used (see Example 2).
(§2) For the flow cytometry experiments, the cells were harvested from the culture flasks, washed 2 times with PBS, re-suspended in PBS with 0.2% BSA and 0.09% NaN₃ and finally aliquoted 1×10⁵ cells per well into V-shaped 96-well plates (Greiner Bio-One, Frickenhausen, Germany). Cells were centrifuged at 400×g for 5 min and then incubated at 4° C. for 45 min with different antibody dilutions.
(§3) After washing with PBS with 0.2% BSA and 0.09% NaN₃, the cells were stained with 10 μg/ml of RPE-conjugated goat anti-human IgG (AbDSerotec, Düsseldorf, Germany) for 30 minutes at 4° C. The stained cells were washed, re-suspended in 200 μl PBS with 0.2% BSA and 0.09% NaN₃ and transferred to a U-shaped 96-well plate (Corning, Schiphol-Rijk, The Netherlands) for acquisition on EasyCyte flow cytometer (Guava Technologies, Hayward, Calif., USA).

[2] = biological target: T1, human CC chemokine receptor 4 (CCR4); assay: competition flow cytometry on CCR4-transfected DT40 cells: unlabelled IgG against 7 nM biotinylated 9E IgG, streptavidin-RPE
Method: (§4) To analyze the epitope binding of anti-CCR4 antibodies 17G, 9E and KM3060var, competition experiments were performed using flow cytometry. The binding of biotinylated antibodies to CCR4 transfected DT40-cells was challenged in the presence of different concentrations of non-biotinylated anti-CCR4 antibodies. The CCR4⁺ DT40 cells were harvested from culture flasks, washed 2 times with PBS, re-suspended in PBS with 0.2% BSA and 0.09% NaN₃ and finally aliquoted 1×10⁵ cells per well into V-shaped 96-well plates (Greiner Bio-One, Frickenhausen, Germany). Cells were centrifuged at 400×g for 5 min and then incubated at 4° C. for 3-4 hours with fixed amounts of biotinylated IgG and different concentrations of non-biotinylated antibodies. After washing with PBS with 0.2% BSA and 0.09% NaN₃, the cells were stained with 2.5 μg/ml of Streptavidin—RPE (BD Pharmingen, San Diego, Calif., USA) for 30 minutes at 4° C. The stained cells were washed, re-suspended in 250 μl PBS with 0.2% BSA and 0.09% NaN₃ and transferred to a U-shaped 96-well plate (Corning, Schiphol-Rijk, The Netherlands) for acquisition on EasyCyte flow cytometer (Guava Technologies, Hayward, Calif., USA). The results shown in FIGS. 10 A, B and C illustrate that the 17G and 9E antibodies have epitopes that are identical or at least overlapping.

[3] = biological target: T1, human CC chemokine receptor 4 (CCR4); assay: flow cytometry, IgG titration on CCR4+ DT40 cells; one site-specific binding fit (Prism)
Method: as §1, §2, §3

[4] = biological target: T1, human CC chemokine receptor 4 (CCR4); assay: competition flow cytometry on CCR4-transfected DT40 cells: unlabelled IgG against 0.28 nM biotinylated 17G IgG, streptavidin-RPE
Method: as §4

[5] = biological target: T1, human CC chemokine receptor 4 (CCR4); assay: flow cytometry, IgG titration on CCR4+ HEK293T cells; one site-specific binding fit (Prism)
Method: as §1, §2, §3

[6] = biological target: T1, human CC chemokine receptor 4 (CCR4); assay: cell-based or functional assay
[7] = biological target: T1, human CC chemokine receptor 4 (CCR4); assay: flow cytometry, IgG titration on CCRF-CEM cells; one site-specific binding fit (Prism)
Method: as §1, §2, §3

- Kd [1]: 0.42 nM
- IC50 (read off the curve) [2]: ~0.3 nM
- Kd [3]: 0.42 nM
- IC50 (read off the curve) [4]: ~0.4 nM
- Kd [5]: 0.62 nM
- Ca++ flux in CCRF-CEM cells: signal response to MDC stimulation (% of MDC in the absence of IgGs), IgG 10 µg/mL [6]: 42%
- Ca++ flux in CCRF-CEM cells: signal response to TARC stimulation (% of TARC alone), IgG 10 µg/mL [6]: -1%
- Kd [7]: 0.16 nM
B1: 17G IgG (full length human IgG1, lambda) (antibody, V domains shown)
VH: [letters of about 100 residues omitted]IRYSAGYWGQGTLVTVSS
VL: SYVLTQPPSASGTPGQRVTISCSGSSSNIGSNYVYWYQQLPGTAPKLLIYRNNQRPSGVPDRFSGSKSGTSASLAISGLRSEDEADYYCAAWDDRLSGWVFGGGTKLTVLG
notes: also called IgG 17G
